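Growth conditions: 96-well plates. Treatment: test compound, 48 hours, 5 concentrations. Analysis: linear interpolation between bracketing concentrations; unreached endpoints set to highest concentration. GI50: concentration for 50% inhibition of growth.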 The source made the active and inactive calls. Cut-off read from the data, not from the text of the source: active = GI50 up to about 1.1 µM and inactive = higher.

The test relates to NCI-H322M. Briefly: NCI anticancer screen, dose series, 48 h.
Consider `COc1cccc2nc3c(C(=O)NCCN(C)C)cccc3cc12`, for which the GI50 was inactive: 2.74 µM. The same measure for `Cc1cc(C(F)(F)F)cc(-n2nc(NS(=O)(=O)c3cc(C)c(Cl)cc3S)nc2N)n1`: inactive: 26.7 µM. Regarding `CN(C)CCCN1c2ccc3ccccc3c2Sc2cccc(Cl)c21`, the GI50 was inactive: 5.32 µM. `c1nc2nc[nH]c(SSc3[nH]cnc4ncnc3-4)c-2n1`: the GI50 was inactive: 3.1 µM.

Consider `COC(=O)C(Cc1ccccc1)NC(=O)C(CNC(=O)OCc1ccccc1)C(=O)OCc1ccccc1` (stereo unspecified), for which the GI50 is inactive: 72.1 µM. For `SCCSCCCSCCS`, the GI50 was inactive: > 100 µM. The same measure for `O=C1Nc2ccccc2C1Cc1ccc([N+](=O)[O-])cc1` (stereo unspecified): inactive: > 100 µM; for `O=CC[C@H]1C(=O)C[C@@H]2CCC[C@@H]21`: inactive: > 100 µM; for `CCCCCCCCCCCCCCCC(=O)OCC1OC(N2C(=O)/C(=N\NC(N)=S)c3ccc([N+](=O)[O-])cc32)C(OC(C)=O)C1OC(C)=O` (stereo unspecified): inactive: 91.4 µM. As for `CCn1c(=O)c2ccccc2n2c(=O)c3cc4ccccc4cc3nc12`, the GI50 was inactive: > 100 µM. The same measure for `Cc1c(CCCl)c(N=P(c2ccccc2)(c2ccccc2)c2ccccc2)n2c(nc3ccccc32)c1C#N`: inactive: > 10 µM. The value for `CCOC(=O)c1cn2c(n1)sc1cc(C)c(C)cc12` was inactive: 19.2 µM. Turning to `COCOCCCCCO[Si](C)(C)C(C)(C)C`, the GI50 was inactive: 33 µM. As for `CCOc1ccccc1NC(=O)C(=O)C(C(=O)c1ccc2ccccc2c1)C1OC(=O)c2ccccc21` (stereo unspecified), the GI50 was inactive: 14.3 µM.

Regarding `Cc1nc(C(N)=S)sc1C(=O)CC(=O)C(=O)Nc1ccccc1[N+](=O)[O-]`, the GI50 is inactive: > 100 µM. The same measure for `CCc1cccc(CC)c1Nc1nc2c(s1)C(=O)c1ccccc1C2=O`: inactive: 18 µM; for `CCOC(=O)/C(C(=O)c1ccc[nH]1)=C1/CCCN1C`: inactive: > 100 µM; for `CC(C)(Cc1ccccc1)Cc1cc(O)ccc1O`: inactive: 32.4 µM.

Take `O=C1CCNC/C1=C\c1ccccc1`: the GI50 was inactive: 31 µM. Regarding `COc1c(C)c2c(c(=O)c3c(C)cccc3n2C)c2c1c(=O)c1c(C)cccc1n2C`, the GI50 is inactive: > 10 µM. The same measure for `Cc1ccc(NC(=O)CC/C(CC(=O)C(C)(C)C)=N\NC(=O)C[n+]2ccccc2)cc1C`: inactive: > 100 µM. For the compound `Cc1cc2c(=O)[nH]nc(N)c2c(N)n1`, the GI50 was inactive: > 100 µM. As to `Cc1c(C)c2ccc3oc4ccccc4c3c2oc1=O`, the GI50 is inactive: > 100 µM. `O=C1c2ccccc2-c2c1c(-c1cccc(Br)c1)nc1ccc3ccccc3c21`: the GI50 was inactive: > 100 µM. The value for `N=c1c2sc3nc4ccccc4n3c2ncn1Cc1ccccc1` was inactive: > 100 µM.

In the case of `CC(=O)/C=C1\Nc2sc(C)c(C)c2C(=O)S1`, the GI50 is inactive: > 100 µM. Take `CC(C)N(C(=O)C12C3C4C5(C#N)C3C1(I)C5C42I)C(C)C` (stereo unspecified): the GI50 is inactive: > 100 µM. The value for `Cc1cc(N(C)c2ccccc2)nc(N(C)c2ccccc2)n1` was inactive: 39.4 µM; that for `CC1CCCc2c1c1ccc3c(O)cccc3c1oc2=O` (stereo unspecified) was inactive: 25.8 µM; that for `CC(C)=CCc1[nH]c2ccccc2c1C1=C(O)C(=O)C(c2c(CC=C(C)C)[nH]c3ccccc23)=C(O)C1=O` was inactive: 1.56 µM. Turning to `CC(=O)NCCCCN(CCCNC(C)=O)C(=O)OCc1ccccc1`, the GI50 is inactive: > 100 µM. The same measure for `N=C(N)c1ccc(/N=N\c2c(O)c(C(=O)Nc3ccccc3)cc3ccccc23)cc1`: inactive: > 100 µM.

Turning to `Cc1ccccc1C(=O)c1cc(O)ccc1O`, the GI50 was inactive: > 100 µM.

`c1ccc2c(c1)SCCCS2`: the GI50 was inactive: > 100 µM. The value for `CCOC(=O)c1c(N2CCOCC2)[nH]c(=O)c(C(c2c(O)c(C(=O)OCC)c(N3CCOCC3)[nH]c2=O)C(C)C)c1O` was inactive: > 100 µM. The same measure for `COC(=O)c1ccccc1/C=C1\Cc2c(C)c3c(c(C)c2C1=O)CCC3`: inactive: > 100 µM; for `O=c1c2ccccc2nc(-c2ccccc2)n1NCC1(O)OCC(O)C(O)C1O` (stereo unspecified): inactive: > 100 µM; for `Cn1c(N)[n+](C(=O)OCc2ccccc2)c(=O)c2c1ncn2C(=O)OCc1ccccc1`: inactive: > 100 µM. The value for `COC(=O)[C@@H]1C=C[C@H](NC(C)=O)C1` was inactive: > 100 µM; that for `Cc1c(-c2ccc(O)cc2)n(CCCCCCNCCOC(=O)NCCCc2ccc(N(CCCl)CCCl)cc2)c2ccc(O)cc12` was inactive: 2.07 µM. Turning to `CC1=CC2C(C=C1)S(=O)(=O)N1CC21c1ccccc1` (stereo unspecified), the GI50 was inactive: > 100 µM.

With `COc1ccc(/N=N/c2c(C)c(C#N)c(=S)n(C3OC(CO)C(O)C(O)C3O)c2-c2ccccc2)cc1` (stereo unspecified), the GI50 is inactive: 42.5 µM. With `CC1(C)C=C(S(=O)(=O)c2ccccc2)Oc2ccccc2O1`, the GI50 is inactive: > 100 µM. Consider `CC(=O)OCCOCNC(=S)N/N=C/c1cc([N+](=O)[O-])ccc1O`, for which the GI50 is inactive: 58.6 µM. The same measure for `CCN(C(=O)N[C@@H](C)C(=O)N[C@@H](Cc1ccccc1)C(=O)OC)c1ccccc1`: inactive: 57.5 µM; for `CC[C@]1(Cc2ccc(OC)c(OC)c2)C=[N+]([O-])O[C@H](OC2CCCC2(c2ccccc2)c2ccccc2)[C@@H]1OC(=O)c1ccccc1` (stereo partly specified): inactive: 11.1 µM.

As for `C=CCOC1=C(OC(C)=O)C(C2COC(C)(C)O2)OC1=O` (stereo unspecified), the GI50 is inactive: 66.2 µM.

`COc1ccc(C2=C(Cl)c3cc(OC)c(OC)cc3C2)cc1OC`: the GI50 is inactive: > 100 µM. The same measure for `CC[C@H]1C=CCC[C@@]2(C[C@@H]3CC[C@H]4[C@@H](C(=O)OCCCCCCCCCCCCCCCC(=O)N(CCCN)C[C@@H](O)CCN)[C@@]5(CCC[C@@H](C)O5)NC(=[N+]34)N2)O1`: inactive: 1.72 µM. The same measure for `CC(C)NC(C)Cc1ccccc1` (stereo unspecified): inactive: > 100 µM; for `COc1ccc2c(c1)N=C1CSC(c3cc([N+](=O)[O-])ccc3Cl)N1C2` (stereo unspecified): inactive: 17.8 µM. Consider `O=C(O)CSc1nnc(Cc2ccccc2)[nH]1`, for which the GI50 is inactive: > 100 µM. The same measure for `COc1cccc(/N=N/C(=N/NC(=O)c2ccc(C)cc2)c2ccc(N(CCC#N)CCC#N)cc2OC)c1`: inactive: 22.4 µM. For `c1ccc(C(C2=Nc3cccc4cccc(c34)N2)c2ccccc2)cc1`, the GI50 was inactive: 25.1 µM.

For the compound `COc1ccc(/C=C2\CCC(C)(CN(C)C)C2=O)cc1` (stereo unspecified), the GI50 is inactive: > 100 µM. Take `COCC1OC(N2C(=O)NC(=O)[C@@H]3C=C4CCCCC4=C[C@@H]32)C(OC)C1OC` (stereo partly specified): the GI50 was inactive: > 100 µM. Consider `COc1ccc(/C(Cl)=C(\C=O)c2ccc(OC)c(OC)c2)cc1`, for which the GI50 is inactive: > 100 µM. In the case of `COc1ccccc1Cn1nc(OC)c2cc([N+](=O)[O-])ccc21`, the GI50 was inactive: > 20.4 µM. As to `Nn1c(S)nnc1CCCCCCCCc1nnc(S)n1N`, the GI50 was inactive: > 100 µM.

As to `CC(C)(C)c1ccc(OCCOc2ccc(C(C)(C)C)cc2N)c(N)c1`, the GI50 is inactive: > 100 µM. Consider `CC1OC(OC2C(O[C@H]3CC[C@@]4(C)C(=CC[C@H]5[C@@H]6C[C@@H]7O[C@]8(CC[C@@H](CO)CO8)[C@@H](C)[C@@H]7[C@@]6(C)CC[C@@H]54)C3)OC(CO)C(O)C2OC2OC(CO)C(O)C(O)C2O)C(O)C(O)C1O` (stereo partly specified), for which the GI50 is inactive: 2.2 µM. In the case of `CCCn1c(CN(Cc2nc3ccccc3n2CCC)Cc2nc3ccccc3n2CCC)nc2ccccc21`, the GI50 is active: 0.889 µM.

`Cc1cccc(C)c1NC(=O)C(=O)CC(=O)c1sc(Nc2c(C)cccc2C)nc1C`: the GI50 was inactive: > 100 µM.

As for `NCC(=O)NC(CO)C(=O)O` (stereo unspecified), the GI50 was inactive: > 100 µM. The value for `CC(O)C(O)C(N)CC=O` (stereo unspecified) was inactive: > 500 µM; that for `CS(=O)(=O)c1c(N)c2nc(Cl)cn2c2nc3ccccc3nc12` was inactive: > 100 µM.

With `O=S(=O)(N1CCCCN(S(=O)(=O)C(F)(F)F)CCCN(S(=O)(=O)C(F)(F)F)CCCN(S(=O)(=O)C(F)(F)F)CCCCN(S(=O)(=O)C(F)(F)F)CCCN(S(=O)(=O)C(F)(F)F)CCC1)C(F)(F)F`, the GI50 is inactive: > 100 µM.

For `COC(=O)c1ccccc1C1CN=NC12Cc1ccc(C)c(C)c1C2=O` (stereo unspecified), the GI50 was inactive: 42.2 µM. The value for `OCC(CN1CCCCC1)(CN1CCCCC1)CN1CCCCC1` was inactive: > 100 µM. Take `CSc1c(C#N)c(N)n(-c2ccc(Cl)cc2)c(=O)c1C#N`: the GI50 is inactive: 76.2 µM. The value for `C/C=C/C(C#N)(/C=C/c1ccccc1)OP1(=O)OC(c2ccccc2)C(C)N1C` (stereo unspecified) was inactive: 18.6 µM; that for `COc1ccc(NC(=O)/C(=N\NC(=O)C[n+]2ccccc2)c2c(O)c3ccc(O)cc3oc2=O)c([N+](=O)[O-])c1` was inactive: > 100 µM; that for `O=[N+]([O-])/C(Cl)=C(\NCCO)C(Cl)=C(Cl)Cl` was inactive: > 100 µM.

`O=C(O)C1(Cc2ccc3c(c2)CCC3)Cc2ccccc2C1=O` (stereo unspecified): the GI50 was inactive: 55.8 µM.

For the compound `CC(C)NC1CCCCC2c3cc(F)ccc3[C@]12O` (stereo partly specified), the GI50 was inactive: > 100 µM. The value for `O=C1c2c(Br)sc(Br)c2[C@@H](NC(=O)C(F)(F)F)C1Br` (stereo partly specified) was inactive: 4.71 µM; that for `CCOC(=O)N1CCC(=O)C[C@@H]1C/C=C/P1(=O)O[C@H](c2ccccc2)C(C)N1C(C)C` (stereo partly specified) was inactive: > 100 µM; that for `CC(=O)C1C(=O)C(=O)N(c2cccc(C)c2C)C1=O` (stereo unspecified) was inactive: > 100 µM.

Regarding `CC[C@]1(O)C[C@H]2CN(CCc3c([nH]c4ccccc34)[C@@](C(=O)OC)(c3cc4c(cc3OC)N(C)[C@H]3[C@@](O)(C(=O)OC)[C@H](OC(C)=O)[C@]5(CC)C=CCN6CC[C@]43[C@@H]65)C2)C1`, the GI50 was active: 0.00104 µM. The value for `Clc1ccc2c(NCCCCCCNc3ccnc4cc(Cl)ccc34)ccnc2c1` was inactive: 5.24 µM.

For the compound `COc1cc(OC)c(-c2oc3ccccc3c(=O)c2O)c(OC)c1`, the GI50 was inactive: > 100 µM.

The record behind these values is ChEMBL document CHEMBL1201862, “PubChem BioAssay data set” (2004).
